According to PMC4336329 (PLoS ONE, 2015):
Hit rate of the full screen: of about 310,000 compounds, about 2,200 (0.71%) showed an effect of 50% or more. The effect is printed as a negative number. The list shows a part of the results.

Each compound was assayed against human ether-à-go-go-related gene (hERG) potassium channel (human, UniProt Q12809) (assay: primary screen, population patch clamp on CHO cells stably expressing hERG).
Chain of human ether-à-go-go-related gene (hERG) potassium channel (Q12809 whole entry, looked up): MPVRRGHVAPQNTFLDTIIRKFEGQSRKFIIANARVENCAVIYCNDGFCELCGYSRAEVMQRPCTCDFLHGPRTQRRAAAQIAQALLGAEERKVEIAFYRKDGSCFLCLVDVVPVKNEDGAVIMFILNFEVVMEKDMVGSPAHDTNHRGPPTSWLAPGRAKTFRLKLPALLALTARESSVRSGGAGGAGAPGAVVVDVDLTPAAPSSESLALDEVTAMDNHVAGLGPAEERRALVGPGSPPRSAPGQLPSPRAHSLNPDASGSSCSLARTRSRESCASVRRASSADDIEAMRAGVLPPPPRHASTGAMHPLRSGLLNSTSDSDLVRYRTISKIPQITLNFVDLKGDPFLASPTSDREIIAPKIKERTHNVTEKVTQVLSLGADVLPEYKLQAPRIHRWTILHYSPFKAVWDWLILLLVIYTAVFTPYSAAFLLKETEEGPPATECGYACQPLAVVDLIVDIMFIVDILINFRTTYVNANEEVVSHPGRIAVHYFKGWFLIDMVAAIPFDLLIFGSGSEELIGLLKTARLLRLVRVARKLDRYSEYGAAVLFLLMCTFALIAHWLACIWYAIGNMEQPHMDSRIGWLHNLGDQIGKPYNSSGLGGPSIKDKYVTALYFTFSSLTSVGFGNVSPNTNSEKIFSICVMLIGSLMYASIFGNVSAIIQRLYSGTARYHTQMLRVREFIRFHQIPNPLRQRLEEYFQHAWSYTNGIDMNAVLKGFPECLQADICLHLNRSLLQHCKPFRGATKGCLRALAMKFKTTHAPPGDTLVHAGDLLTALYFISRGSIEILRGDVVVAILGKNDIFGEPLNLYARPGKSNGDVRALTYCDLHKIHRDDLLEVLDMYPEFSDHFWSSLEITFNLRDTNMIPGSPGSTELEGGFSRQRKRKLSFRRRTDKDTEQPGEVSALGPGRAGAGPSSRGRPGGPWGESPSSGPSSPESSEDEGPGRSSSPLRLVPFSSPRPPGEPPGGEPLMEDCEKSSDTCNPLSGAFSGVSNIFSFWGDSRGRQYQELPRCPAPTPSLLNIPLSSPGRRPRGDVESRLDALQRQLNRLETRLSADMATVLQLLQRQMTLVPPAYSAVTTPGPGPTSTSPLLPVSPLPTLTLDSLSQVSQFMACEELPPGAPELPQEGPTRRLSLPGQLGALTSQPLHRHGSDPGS

For `COc1cccc(C(=O)COC(=O)C2CC(=O)N(c3ccc(Oc4ccccc4OC)cc3)C2)c1` (centres unmarked), which “hERG current change (%, negative = inhibition) at 1uM” value is on record?
Its value is 4.19%.

`Cc1onc(-c2ccccc2Cl)c1C(=O)NCCN1CCOCC1` was tested. Which “hERG current change (%, negative = inhibition) at 1uM” value did it give?
The value was 11.8%.

Which “hERG current change (%, negative = inhibition) at 1uM” value does the source give for `CCCC1/C(=N/O)CC(c2ccccc2)NC1c1ccccc1` (centres unmarked) here?
Its value is 15%.

Which “hERG current change (%, negative = inhibition) at 1uM” value does the source give for `CC(=O)n1cc(/C=N/NC(=O)c2sc(C)nc2C)c2ccccc21` here?
The value was 19.9%.

How did the “hERG current change (%, negative = inhibition) at 1uM” value turn out when `COC(=O)C1CC(O)CN1C(=O)NC1CCCCC1` (centres unmarked) was run?
The value was 9.8%.

How did the “hERG current change (%, negative = inhibition) at 1uM” value turn out when `Cc1cc(C(=O)COc2ccc([N+](=O)[O-])cc2)c(C)n1C1CC1` was run?
The value was 5.93%.

For `CCn1c(SCC(=O)c2ccc(Cl)cc2)nnc1-c1cccs1`, which “hERG current change (%, negative = inhibition) at 1uM” value is on record?
Its value is -1.74%.

Which “hERG current change (%, negative = inhibition) at 1uM” value does the source give for `N#C/C(=C1\CCCN1)c1nc(-c2ccccc2)cs1` here?
Its value is -1.88%.

How did the “hERG current change (%, negative = inhibition) at 1uM” value turn out when `Cn1cc(S(=O)(=O)N2CCN(c3ccc(F)cc3)CC2)c(=O)n(C)c1=O` was run?
Its value is 3.35%.

`COc1ccccc1NC(=O)N1CCOCC1` was tested. Which “hERG current change (%, negative = inhibition) at 1uM” value did it give?
Its value is 19%.

For `OC(COc1ccc(Br)cc1)Cn1ccnc1` (centres unmarked), which “hERG current change (%, negative = inhibition) at 1uM” value is on record?
The value was 10.4%.

Which “hERG current change (%, negative = inhibition) at 1uM” value does the source give for `Cc1c2c(nc3c(C(=O)NC4CCCC4)cnn13)CCCC2` here?
Its value is -2.53%.

`Cc1ccc(N(CC(=O)NCc2ccccc2)C(=O)c2csnn2)cc1` was tested. Which “hERG current change (%, negative = inhibition) at 1uM” value did it give?
The value was 7.71%.

`COc1ccc(CC(=O)Nc2nnc(C)s2)cc1` was tested. Which “hERG current change (%, negative = inhibition) at 1uM” value did it give?
Its value is 11.2%.

For `CCOc1ccc(CNC(=O)CCS(=O)(=O)Cc2ccc(C)cc2)cc1OC`, which “hERG current change (%, negative = inhibition) at 1uM” value is on record?
Its value is 17.8%.

With `C/C(=N\NC(=O)c1ccc(O)cc1)c1ccc2c(c1)OCCO2` as the compound, how does the “hERG current change (%, negative = inhibition) at 1uM” value read?
Its value is 7.64%.

`COc1ccc(N2CCN(CCCNC(=O)C3CCN(S(=O)(=O)N4CCOCC4)CC3)CC2)cc1` was tested. Which “hERG current change (%, negative = inhibition) at 1uM” value did it give?
Its value is -2.02%.

`COc1ccc(C2=Nc3ccc(C)cc3C(c3ccccc3)N2CC(=O)NN)cc1` (centres unmarked) was tested. Which “hERG current change (%, negative = inhibition) at 1uM” value did it give?
Its value is -9.94%.

With `Cc1nnc(SCCn2c(N3CC(C)CC(C)C3)nc3c2c(=O)[nH]c(=O)n3C)s1` (centres unmarked) as the compound, how does the “hERG current change (%, negative = inhibition) at 1uM” value read?
Its value is 7.87%.

With `Cc1ccc(-n2ncc3c2CCCC3NC(=O)CSc2ccccn2)cc1C` (centres unmarked) as the compound, how does the “hERG current change (%, negative = inhibition) at 1uM” value read?
Its value is 4.76%.

For `S=C1NC2(CCCCC2)Nc2ccccc21`, which “hERG current change (%, negative = inhibition) at 1uM” value is on record?
Its value is 12.1%.

For `COc1cccc(NC(=O)CN2C(=O)COc3ccc(C)cc32)c1`, which “hERG current change (%, negative = inhibition) at 1uM” value is on record?
Its value is 14.4%.

`Nc1ccc(C(=O)N/N=C/c2cn(Cc3cccc(F)c3)c3ccccc23)cc1` was tested. Which “hERG current change (%, negative = inhibition) at 1uM” value did it give?
The value was 15.6%.

With `COc1ccc(OC)c(NC(=O)CSc2nncc(=O)n2N)c1` as the compound, how does the “hERG current change (%, negative = inhibition) at 1uM” value read?
The value was 13.9%.

For `O=C(CCC1CCCC1)NNC(=O)c1ccccc1O`, which “hERG current change (%, negative = inhibition) at 1uM” value is on record?
Its value is 12.5%.

With `Cc1ccc(OCC(=O)NCc2ccc3c(c2)OCO3)c([N+](=O)[O-])n1` as the compound, how does the “hERG current change (%, negative = inhibition) at 1uM” value read?
Its value is -4.28%.
